The least precise scores are not listed. Not listed are two conditions whose scores span a narrow range. In variant names, del marks residues removed and ins residues inserted between the two positions. For some assays here: How much ogerin was present is not stated here.

First the molecules themselves.
B1: GPR68, Q15743 (parent)
chain: MGNITADNSSMSCTIDHTIHQTLAPVVYVTVLVVGFPANCLSLYFGYLQIKARNELGVYLCNLTVADLFYICSLPFWLQYVLQHDNWSHGDLSCQVCGILLYENIYISVGFLCCISVDRYLAVAHPFRFHQFRTLKAAVGVSVVIWAKELLTSIYFLMHEEVIEDENQHRVCFEHYPIQAWQRAINYYRFLVGFLFPICLLLASYQGILRAVRRSHGTQKSRKDQIQRLVLSTVVIFLACFLPYHVLLLVRSVWEASCDFAKGVFNAYHFSLLLTSFNCVADPVLYCFVSETTHRDLARLRGACLAFLTCSRTGRAREAYPLGAPEASGKSGAQGEEPELLTKLHPAFQTPNSPGSGGFPTGRLA

Data set [1] covers variants of B1. Nature of the data set: cAMP reporter score (Enrich2 score, wild type = 0); higher = more signal; HEK293T, FACS bins.
In data set [2] the parent is B1. The experiment in a line: surface expression score (Enrich2 score, wild type = 0); higher = more signal; HEK293T, FACS bins.

For A124I, the cAMP reporter score in data set [1] (pH 6) was 0.869; in data set [1] (pH 6, modulator: ogerin) it was 1.86; in data set [1] (pH 6.5, modulator: ogerin), -0.435. In data set [2], the surface expression score was -0.403.
E103_N104insG: the cAMP reporter score in data set [1] (pH 6) was -0.762. Besides, in data set [2], the surface expression score was -0.425.
For D118V, the cAMP reporter score in data set [1] (pH 6) was -0.927; in data set [1] (pH 6, modulator: ogerin), -4.2.
Taken in the same sequence, the figures for D118P were 0.154 and -1.55.
For S88N, the cAMP reporter score is -0.942 in data set [1] (pH 6); 0.545 in data set [1] (pH 6, modulator: ogerin); -0.463 in data set [1] (pH 6.5, modulator: ogerin).
Consider S88I, for which the cAMP reporter score was found to be 1.92 in data set [1] (pH 6); 0.879 in data set [1] (pH 6, modulator: ogerin); 2.22 in data set [1] (pH 6.5, modulator: ogerin). For the same variant, the surface expression score in data set [2] was -0.13.
Turning to R189del, the cAMP reporter score is -1.25 in data set [1] (pH 6); -1.51 in data set [1] (pH 6, modulator: ogerin); -1.07 in data set [1] (pH 6.5, modulator: ogerin). In addition, the surface expression score in data set [2] was -2.18.
For the variant C199D, the cAMP reporter score is -0.403 in data set [1] (pH 6) and -0.326 in data set [1] (pH 6, modulator: ogerin).
Take C199L: the cAMP reporter score in data set [1] (pH 6) was determined as 1.08. Besides, the surface expression score in data set [2] is 1.67.
On to C199K, for which the cAMP reporter score was -0.663 in data set [1] (pH 6); -3.15 in data set [1] (pH 6, modulator: ogerin); -0.437 in data set [1] (pH 6.5, modulator: ogerin). The surface expression score in data set [2] was -0.289.
For Y70K, the cAMP reporter score in data set [1] (pH 6) is -1.68; in data set [1] (pH 6.5, modulator: ogerin), -1.89. For the same variant, the surface expression score in data set [2] stood at 2.84.
Consider L195_F196insG, for which the cAMP reporter score was -0.446 in data set [1] (pH 6); -0.631 in data set [1] (pH 6, modulator: ogerin); -0.344 in data set [1] (pH 6.5, modulator: ogerin).
As for N186G, the cAMP reporter score in data set [1] (pH 6) came out at 3.03; in data set [1] (pH 6, modulator: ogerin), 0.792; in data set [1] (pH 6.5, modulator: ogerin), 2.38. Moreover, in data set [2], the surface expression score came out at 0.364.
As to C114_I115insGSG, the cAMP reporter score in data set [1] (pH 6) was -1.87; in data set [1] (pH 6, modulator: ogerin) it was -0.707; in data set [1] (pH 6.5, modulator: ogerin), -0.394.
Take I71_S73del: the cAMP reporter score is -0.613 in data set [1] (pH 6); -1.69 in data set [1] (pH 6, modulator: ogerin); -1.21 in data set [1] (pH 6.5, modulator: ogerin). Besides, the surface expression score in data set [2] was -1.95.
Taken in the same sequence, the figures for I178E were -0.854, -1.21, -2.69 and -0.693.
For the variant Q227_R228insG, the cAMP reporter score in data set [1] (pH 6) is -0.624; in data set [1] (pH 6.5, modulator: ogerin), -2.35. Also, in data set [2], the surface expression score stood at 0.414.
With A184_I185insGS, the cAMP reporter score in data set [1] (pH 6) is -0.234; in data set [1] (pH 6, modulator: ogerin), -1.14; in data set [1] (pH 6.5, modulator: ogerin) it was -1.63.
Turning to L60del, the cAMP reporter score in data set [1] (pH 6) is -0.73; in data set [1] (pH 6, modulator: ogerin), -2.69. Moreover, in data set [2], the surface expression score was -4.
On to N62P, for which the cAMP reporter score is -1.07 in data set [1] (pH 6); -1.17 in data set [1] (pH 6, modulator: ogerin); -1.06 in data set [1] (pH 6.5, modulator: ogerin).
For Q79P, the cAMP reporter score in data set [1] (pH 6) is -2; in data set [1] (pH 6, modulator: ogerin) it was -1.7; in data set [1] (pH 6.5, modulator: ogerin) it was -1.24. The surface expression score in data set [2] came out at 0.666.
Taken in the same sequence, the figures for L121_A122insGSG were -0.117, -0.667, -0.333 and -0.318.
In the same order, the values of C97M are -0.639, 0.194, -0.661 and 3.48.
In the same order, the values of Y102T are -0.888, -0.6, -1.18 and 2.21.
Take Y102W: the cAMP reporter score is -1.94 in data set [1] (pH 6); -0.737 in data set [1] (pH 6, modulator: ogerin); -2.01 in data set [1] (pH 6.5, modulator: ogerin). For the same variant, the surface expression score in data set [2] was -0.758.
In the same order, the values of L150H are -0.456, -3.59, -2.04 and -2.38.
As to V144_I145del, the cAMP reporter score is -0.635 in data set [1] (pH 6) and -1.61 in data set [1] (pH 6.5, modulator: ogerin). Further, the surface expression score in data set [2] is -2.69.
Consider C94_Q95del, for which the cAMP reporter score in data set [1] (pH 6) was -1.52; in data set [1] (pH 6, modulator: ogerin) it was -1.08; in data set [1] (pH 6.5, modulator: ogerin), -1.02. Also, the surface expression score in data set [2] was -1.5.
Taken in the same sequence, the figures for Q219D were 2.26, 1.82, 2.12 and 2.36.
For C97_G98insGS, the cAMP reporter score in data set [1] (pH 6) is -0.509; in data set [1] (pH 6, modulator: ogerin) it was -3.19; in data set [1] (pH 6.5, modulator: ogerin), -2.
S93M: the cAMP reporter score in data set [1] (pH 6) turned out to be 5.64; in data set [1] (pH 6, modulator: ogerin), 0.255. The surface expression score in data set [2] was 4.33.
Take S93D: the cAMP reporter score in data set [1] (pH 6) was -0.437; in data set [1] (pH 6, modulator: ogerin), -1.85; in data set [1] (pH 6.5, modulator: ogerin), -0.089. Further, the surface expression score in data set [2] is -3.08.
With V192N, the cAMP reporter score in data set [1] (pH 6) was 2.65; in data set [1] (pH 6, modulator: ogerin), -0.092.
For F127_R128insGSG, the cAMP reporter score was -0.536 in data set [1] (pH 6); -1.38 in data set [1] (pH 6, modulator: ogerin); -0.434 in data set [1] (pH 6.5, modulator: ogerin).
On to C172N, for which the cAMP reporter score in data set [1] (pH 6) was -1.75; in data set [1] (pH 6, modulator: ogerin), -1.69; in data set [1] (pH 6.5, modulator: ogerin) it was -2.51. In addition, the surface expression score in data set [2] was -1.65.
In the same order, the values of C172G are -1.08, -2.07, -1.21 and -1.73.
Take F111_L112insG: the cAMP reporter score is -1.99 in data set [1] (pH 6); -1.47 in data set [1] (pH 6, modulator: ogerin); -1.94 in data set [1] (pH 6.5, modulator: ogerin).
Turning to R228C, the cAMP reporter score in data set [1] (pH 6) came to 2.16; in data set [1] (pH 6, modulator: ogerin) it was 0.177; in data set [1] (pH 6.5, modulator: ogerin), 1.05. Also, the surface expression score in data set [2] was -0.495.
For the variant N104_I105insGSG, the cAMP reporter score is -0.233 in data set [1] (pH 6); -0.667 in data set [1] (pH 6, modulator: ogerin); -1.48 in data set [1] (pH 6.5, modulator: ogerin).
As for R214K, the cAMP reporter score is -0.339 in data set [1] (pH 6); -0.603 in data set [1] (pH 6, modulator: ogerin); -0.32 in data set [1] (pH 6.5, modulator: ogerin). Moreover, in data set [2], the surface expression score was 2.3.

The values above are taken from the GPR68 mutational scans of Howard et al. (2025).
